From the RNAGym collection of RNA variant scans (doi:10.1101/gad.245936.114)
Variants at the floor of the assay are shown more often than the library holds them.

B1: tRNA (parent)
chain: CUCUCGGUAGCCAAGUUGGUUUAAGGCGCAAGACUUUAAUUUAUCACUACGAAAUCUUGAGAUCGGGCGUUCGACUCGCCCCCGGGAGAUUUUUUCCUCGAGCAA

Variants of: B1
Assay: nonsense suppression (GFP-seq) (ratio to wild type); higher = more function; SUP4oc tRNA, yeast GFP reporter sort-seq
How it was run: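 Sorted GFP/RFP bins of yeast were each Illumina-sequenced with a phred ≥30 cutoff; the cells held a genome-integrated ochre-suppressor tRNA variant from a library with ~3% random mutations, a galactose-driven GFP ochre reporter, and RFP. Culture was in raffinose/galactose medium containing 80 mg/L adenine. Nonsense suppression, termed GFPSEQ, is the median GFP/RFP of the bins weighted by each variant's estimated cell share per bin, relative to the unmutated parent tRNA, for variants reaching ≥100 reads and ≥30 cells.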

Variant | nonsense suppression
C68U C81A | ≤ 0.026
C68U C83G | ≤ 0.026
C68U U70A | ≤ 0.026
C68U U71C | 0.0274
G69A A87U | ≤ 0.026
G69A C80U | ≤ 0.026
G69A C81G | ≤ 0.026
G69A C83G | ≤ 0.026
G69A G86C | ≤ 0.026
G69A G88A | ≤ 0.026
G69C A74G A89C | ≤ 0.026
G69C A74U A87U | ≤ 0.026
G69C A87U | ≤ 0.026
G69C A89G | ≤ 0.026
G69C C75G | ≤ 0.026
G69C C79A | ≤ 0.026
G69C C80U | ≤ 0.026
G69C C81A | ≤ 0.026
G69C G86A | ≤ 0.026
G69C G86C | ≤ 0.026
G69U C80A G88C | ≤ 0.026
G69U G85U | ≤ 0.026
G69U G86C | 0.17
G69U U71C | ≤ 0.026

Variant | nonsense suppression
G69U U76G | ≤ 0.026
G69U U76G G88U | ≤ 0.026
U70A C75G | ≤ 0.026
U70A C80U | ≤ 0.026
U70A C82A | ≤ 0.026
U70A C83U | 0.0439
U70A U71G | ≤ 0.026
U70A U76G | 0.183
U70C A87C | ≤ 0.026
U70C A87G | ≤ 0.026
U70C A89U | ≤ 0.026
U70C C75U | ≤ 0.026
U70C C81G G85A | ≤ 0.026
U70C C82G | ≤ 0.026
U70C C83A | ≤ 0.026
U70C G78A | 0.0308
U70C G84U | ≤ 0.026
U70C G85U | ≤ 0.026
U70C G86A | ≤ 0.026
U70C U71A | ≤ 0.026
U70C U71C | ≤ 0.026
U70C U76A G86A | ≤ 0.026
U70G C72U | ≤ 0.026
U70G C72U C80U | ≤ 0.026

Variant | nonsense suppression
U70G C81U | ≤ 0.026
U70G G84A | ≤ 0.026
U70G G86U | ≤ 0.026
U70G G88C A89C | ≤ 0.026
U70G G88U A89C | ≤ 0.026
U71A | ≤ 0.026
U71A A74U | ≤ 0.026
U71A C75A | ≤ 0.026
U71A C75G | ≤ 0.026
U71A C81G | ≤ 0.026
U71A C82A | ≤ 0.026
U71A G73C G86C | ≤ 0.026
U71A G86U | ≤ 0.026
U71A G88U | ≤ 0.026
U71A U76C | ≤ 0.026
U71C | ≤ 0.026
U71C A74U | ≤ 0.026
U71C C77G G84A | ≤ 0.026
U71C C79A | ≤ 0.026
U71C C79G G88U | ≤ 0.026
U71C C81A | ≤ 0.026
U71C C82U | ≤ 0.026
U71C G78C | ≤ 0.026
U71C G84C | ≤ 0.026

Variant | nonsense suppression
U71C G88U | ≤ 0.026
U71G | ≤ 0.026
U71G C72A | ≤ 0.026
U71G C72G G73A | ≤ 0.026
U71G G73A U76G G84C | ≤ 0.026
U71G G84A | ≤ 0.026
U71G U76G A89G | ≤ 0.026
C72A A74U A89U | ≤ 0.026
C72A C79G | ≤ 0.026
C72A C80G | ≤ 0.026
C72A G78C | ≤ 0.026
C72A U76A | ≤ 0.026
C72A U76G | ≤ 0.026
C72G A87G | ≤ 0.026
C72G C79G G86A | ≤ 0.026
C72G C79U | ≤ 0.026
C72G C80A | ≤ 0.026
C72G C80A A87C | ≤ 0.026
C72G C83G | ≤ 0.026
C72G G78A | 0.0282
C72G G78U | ≤ 0.026
C72G G85C | ≤ 0.026
C72G G85U | ≤ 0.026
C72U C80A A87C | 0.714

Variant | nonsense suppression
C72U C80G | ≤ 0.026
C72U G78A | 0.0322
C72U G84C G85A | ≤ 0.026
C72U G86C | ≤ 0.026
G73A A89G | ≤ 0.026
G73A C77G | ≤ 0.026
G73A G84U | ≤ 0.026
G73A G85A | 1.03
G73A G85U | 0.285
G73A G86C G88C | ≤ 0.026
G73A G88C | ≤ 0.026
G73A U76A | 0.0803
G73A U76C | 0.682
G73A U76C G85C | ≤ 0.026
G73C A74G | ≤ 0.026
G73C A87G | ≤ 0.026
G73C C79A | ≤ 0.026
G73C C82U | ≤ 0.026
G73C G78C G88U | ≤ 0.026
G73C G84C | ≤ 0.026
G73C G85C A89G | ≤ 0.026
G73U C81A | ≤ 0.026
G73U C83A | ≤ 0.026
G73U G84C | ≤ 0.026

Variant | nonsense suppression
G73U G85C | ≤ 0.026
G73U G88A | ≤ 0.026
A74C A89G | ≤ 0.026
A74C A89U | ≤ 0.026
A74C C77G C79U | ≤ 0.026
A74C C80G | ≤ 0.026
A74C C81G G85C | ≤ 0.026
A74C G78A | ≤ 0.026
A74C G86U | ≤ 0.026
A74C U76C G86A A89G | ≤ 0.026
A74G A87G | ≤ 0.026
A74G C75A G86C | ≤ 0.026
A74G C79A | ≤ 0.026
A74G C81U | ≤ 0.026
A74G C82G | ≤ 0.026
A74G C83G | ≤ 0.026
A74G G85A | ≤ 0.026
A74G G88U | ≤ 0.026
A74G U76G G86U | ≤ 0.026
A74U C81A A89G | ≤ 0.026
C75A C77G | ≤ 0.026
C75A C80G | ≤ 0.026
C75A C80U | 1.01
C75A C81G | ≤ 0.026

Variant | nonsense suppression
C75A G86U | ≤ 0.026
C75G A87C | ≤ 0.026
C75G A89G | ≤ 0.026
C75G C83G | ≤ 0.026
C75G G85C | 0.191
C75G G85U | 1.12
C75U A87C | ≤ 0.026
C75U A87U | ≤ 0.026
C75U C77G | ≤ 0.026
C75U G78C | 1.14
C75U G78C C81G | ≤ 0.026
C75U G85A | 1.06
C75U U76G | 0.172
U76A A89G | ≤ 0.026
U76A C77G | ≤ 0.026
U76A C79G | ≤ 0.026
U76A C82A | ≤ 0.026
U76A C82U | ≤ 0.026
U76A C83A | ≤ 0.026
U76A C83U | ≤ 0.026
U76A G84A | ≤ 0.026
U76A G85U | 0.0588
U76A G86C | ≤ 0.026
